Data taken from patent US4416899A, “Antibiotic BMG162-aF2, a process for production thereof, and antitumor drug containing said new antibiotic as active ingredient” (priority 1980, dated 1983).

Test system: Bacillus anthracis
Experiment: microbe, parasite or virus in culture
Format: cell-based
Conditions: read-out: Minimum inhibitory concentration

**Q.** Which MIC does the source give for `N=C(N)NCCCCC(O)CC(=O)NC(O)C(=O)NCCCCNCCCN` (stereo not shown) [BMG162-aF2] here?
**A.** 25 mg/L (≈ 62 µM)

≈ marks a conversion by molar mass, not a printed value.
